Measured values published in PubChem BioAssay AID1508623 (National Center for Advancing Translational Sciences (NCATS), 2021).
Out of some 48,000 compounds screened, about 450 (0.94%) were called active. The shares of active, inactive and inconclusive entries below differ from those in the screen. Calls follow the shape of the dose curve; as a rule, active = well fitted inhibition curve with a large enough effect; inconclusive = small, poorly fitted or top-dose-only effect; inactive = no such curve, though single readings can be large or run the other way. A potency beside an inconclusive call is a rough fit, not a confirmed value.

Assay: Primary qHTS for Identification of Small Molecule Inhibitors of Huntingtin Promoter Activity; also: nearly all actives have a fitted effect of over 50% in size
Details: HEK293 HTT promoter firefly luciferase reporter (activity 0% = vehicle and -100% = no light), 24 h; series mostly up to 57.5 µM
How it was run: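 HEK293 cells carrying firefly luciferase reporters were seeded at 2,500 per well in Opti-MEM and cultured for 24 h. They were then treated with compounds at up to 57.5 uM final for 24 h at 37 degrees C before Dual-Glo luminescence readout.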
Potency is read from the fitted curve at half-maximal effect; tags tell the direction and shape of the fitted curve.

Potency, inactive:
CCc1ccc(NC(=O)Cn2c(=O)n(-c3ccc(OC)cc3)c(=O)c3ccc(C(=O)NCc4ccc(C)cc4)cc32)cc1
Cc1ccc2nc(-c3ccc(NC(=O)c4ccc(S(C)(=O)=O)cc4)cc3)sc2c1
CCOCCOC(=O)c1ccc2c(c1)N(Cc1ccccc1C#N)C(=O)c1ccccc1S2(=O)=O
COc1ccc2[nH]cc(CCNC(=O)Nc3cc(C)cc(C)c3)c2c1
O=C(O)C1=CO[C@@H](O[C@@H]2O[C@H](CO)[C@H](O)[C@H](O)[C@H]2O)[C@@H]2C(CO)=CC[C@H]12
Cc1cc(C)cc(-n2c(SCC(=O)Nc3ccc4c(c3)OCO4)nc3c([nH]c4ccccc43)c2=O)c1
O=C(Cc1ccc(Cl)cc1)Nc1ccc2oc(-c3ccc(F)cc3)nc2c1
O=S(=O)(c1ccccc1)n1nc(-c2ccc(Cl)cc2)nc1NCc1ccccc1
CCC(=O)N1c2ccccc2C(C)(c2ccccc2)CC1(C)C (centres undefined)
O=C1Nc2cc(Cl)ccc2Oc2ccccc21
CCOc1ccc(Nc2nc3c(S(=O)(=O)c4ccc(CC)cc4)nnn3c3ccc(Cl)cc23)cc1
CC(C)c1ccc(NC(=O)c2cc(S(=O)(=O)N3CCc4ccccc4C3)ccc2F)cc1

Potency, inconclusive:
COc1ccc(CNC(=O)Cc2ccc(NC(=O)N3CCSc4ncccc43)cc2)cc1 11.2 µM [inhibitor, partial curve]
Cc1nnc(SCC(=O)NCc2ccccc2Cl)c2nn(-c3ccccc3)c(C)c12 25.1 µM [inhibitor, partial curve, poor fit]
Cc1ccc(S(=O)(=O)N2CCc3cc(C(=O)Nc4c(F)cccc4F)ccc32)cc1 31.6 µM [inhibitor, single point]
CCC(C(=O)N1CCN(c2cc(C)ccc2C)CC1)n1nc(C)n2c(cc3occc32)c1=O (centres undefined) 28.2 µM [inhibitor, partial curve, poor fit]
Cc1ccc(S(=O)(=O)C(CNC(=O)C(=O)NCc2ccccc2C)c2cccs2)cc1 (centres undefined) 22.4 µM [inhibitor, partial curve, poor fit]
CC(C)OC(=O)c1c(-c2ccccc2)c(-c2ccccc2)nn(C)c1=O 12.6 µM [inhibitor, partial curve, poor fit]
CCC1CN(S(=O)(=O)c2cc(-c3onc(C)c3C)ccc2C)c2cc(Cl)ccc2O1 (centres undefined) 35.5 µM [inhibitor, single point]
Cc1ccc(Cn2ccnc2SCC(=O)Nc2nc3ccccc3s2)cc1 39.8 µM [inhibitor, single point]
Cc1cc(NC(=O)C2CCN(S(=O)(=O)c3cccc4nsnc34)CC2)ccc1Br 39.8 µM [inhibitor, partial curve, poor fit]
Cc1cccc(-n2ncc3c(N4CCCC(C)C4)ncnc32)c1 (centres undefined) 15.8 µM [inhibitor, partial curve, poor fit]
C#CCOc1ccc(C2CC(=O)Nc3c2c(C)nn3-c2nc(C)cc(C)n2)cc1 (centres undefined) 12.6 µM [inhibitor, partial curve, poor fit]
CSc1nn(Cc2cccc(C)c2)c(N)c1S(=O)(=O)c1ccccc1 20 µM [inhibitor, partial curve, poor fit]
CCc1ccc(CNCc2c(C(=O)O)n(Cc3ccc(C)cc3)c3cc(C)ccc23)cc1 20 µM [inhibitor, partial curve]
CC(C)c1ccc2oc(-c3ccc(NC(=O)c4cccc(Br)c4)cc3)nc2c1 28.2 µM [inhibitor, partial curve, poor fit]
CCc1ccc(C2=NN(CCC(=O)NCCc3ccccc3)C(=O)CC2)cc1 2 µM [inhibitor, partial curve, poor fit]
COc1ccc(-n2c(=O)c3c4c(sc3n(Cc3ccccc3C)c2=O)CCCC4)c(OC)c1 20 µM [inhibitor, partial curve, poor fit]
CC(C)c1ccc(Nc2sc(C(=O)c3ccccc3)c(N)c2S(=O)(=O)c2ccccc2)cc1 31.6 µM [inhibitor, partial curve, poor fit]
CCc1nc2ccc(C(=O)N3CCN(c4cccc(Cl)c4)CC3)cc2nc1CC 39.8 µM [inhibitor, single point]
CCN(c1ccccc1)S(=O)(=O)c1ccc(NC(=O)c2nc(S(C)(=O)=O)ncc2Cl)cc1 35.5 µM [inhibitor, partial curve, poor fit]
COc1cc(CNC(=O)c2cnc3c(-c4cccc(C)c4)c(C)nn3c2C)cc(OC)c1OC 39.8 µM [inhibitor, partial curve, poor fit]
Cc1cccc(CNS(=O)(=O)c2ccc(-c3coc(C)n3)cc2)c1 35.5 µM [inhibitor, single point]
O=C1Cc2cc(S(=O)(=O)Nc3ccc(OC(F)(F)F)cc3)cc3c2N1CCC3 39.8 µM [inhibitor, single point]
COc1ccc(S(=O)(=O)c2nnn(-c3cccc(Cl)c3)c2N)cc1 39.8 µM [inhibitor, single point]
COCCn1ccc2c(OCC(=O)Nc3cccc(C(F)(F)F)c3)cccc2c1=O 35.5 µM [inhibitor, partial curve, poor fit]
CCOC(=O)c1c(NC(=O)C(C)Sc2cn(CCNC(=O)c3ccc(OCC)cc3)c3ccccc23)sc2c1CCC2 (centres undefined) 35.5 µM [inhibitor, single point]
COc1ccc2sc(N(Cc3cccnc3)C(=O)CCc3ccccc3)nc2c1 39.8 µM [inhibitor, partial curve, poor fit]
CCOc1ccc(CCNC(=O)c2ccc(CSCc3ccccc3C)o2)cc1OCC 35.5 µM [inhibitor, single point]
CCN(C(=O)C(NS(=O)(=O)c1ccc(Br)s1)c1ccccc1)c1ccc(C)c(C)c1 (centres undefined) 31.6 µM [inhibitor, single point]
COc1cccc(CC(=O)Nc2c(C(=O)N3CCN(c4ccccc4F)CC3)oc3ccccc23)c1 17.8 µM [inhibitor, single point]
CCCC1=Nc2cc(C(=O)NC3CCCCC3)ccc2Sc2ccc(C)cc21 3.16 µM [inhibitor, full curve]
O=C(COc1cccc(Cl)c1)N1CCC(c2nc3ccccc3o2)CC1 22.4 µM [inhibitor, partial curve, poor fit]
O=C(NCc1ccccc1Cl)C1CCCN(C(=O)c2cnn(-c3ccc(F)cc3)c2-n2cccc2)C1 (centres undefined) 14.1 µM [inhibitor, partial curve]
Cc1ccc(N2CCN(C(=O)c3c(C)oc4ncnc(N5CCCCC5)c34)CC2)c(C)c1 39.8 µM [inhibitor, partial curve, poor fit]
Cc1ccc(NC(=O)c2cc(S(=O)(=O)N3CCCCCC3)ccc2F)cc1F 15.8 µM [inhibitor, partial curve, poor fit]
COc1ccc(CCNc2oc(COc3cccc(C)c3)nc2C#N)cc1OC 25.1 µM [inhibitor, partial curve]
CC1CCN(S(=O)(=O)c2ccc3c(ccc(=O)n3CC(=O)NCc3ccc(Cl)cc3)c2)CC1 35.5 µM [inhibitor, single point]
CCn1c(C(=O)N2CCC(C(=O)N3CCN(c4ccc(OC)cc4)CC3)CC2)cc2sccc21 14.1 µM [inhibitor, partial curve, poor fit]
COc1ccc(S(=O)(=O)N(CC(=O)Nc2cc(C)cc(C)c2)c2ccc(Cl)cc2)cc1 25.1 µM [inhibitor, single point]
COc1ccc(Cl)cc1N=C1NC(=O)CC(C(=O)Nc2ccccc2C(F)(F)F)S1 (centres undefined) 28.2 µM [inhibitor, partial curve, poor fit]
CCc1ccccc1N1CC(c2nc3ccccc3n2CCOc2ccc(Cl)c(C)c2)CC1=O (centres undefined) 28.2 µM [inhibitor, partial curve, poor fit]
CCNc1nc(NC(C)(C)C)nc(Oc2ccc(=O)n(-c3ccccc3)n2)n1 39.8 µM [inhibitor, single point]
O=C(NCCn1cc(SCc2ccccc2)c2ccccc21)c1cccs1 20 µM [inhibitor, single point]
COc1ccc(C2=NS(=O)(=O)N(C)C(C(=O)Nc3ccc(OC(F)(F)F)cc3)=C2)cc1 39.8 µM [inhibitor, single point]
CCC(Oc1ccccc1)C(=O)N1CCN(Cc2cc(=O)n3nc(-c4cccc(C)c4)sc3n2)CC1 (centres undefined) 39.8 µM [inhibitor, partial curve, poor fit]
CCOc1ccc(CN2C(=O)c3ccccc3Sc3ccc(C(=O)NCCCN4CCOCC4)cc32)cc1 35.5 µM [inhibitor, single point]

Potency, active:
COc1ccc(CNC(=O)C(=O)NCC(c2cccnc2)N2CCN(c3ccccc3)CC2)cc1 (centres undefined) 12.6 µM
COc1cc(C2CC(=O)c3c([nH]c(C(=O)OC4CCCC4)c3C)C2)cc(OC)c1OC (centres undefined) 4.47 µM
